Reference: the supplement of paper PMC3334620
Whole data set: some 33,000 sequences, median “E-score (-0.5 to 0.5)” near -0.016, cut for the highest 2% near 0.31. The list shows a part of the results.

What follows are sequences tested against Cst6 (UniProt P40535) (assay: PBM E-score (8-mer binding enrichment) (E-score (-0.5 to 0.5)); higher = stronger / more preferred TF binding; most listed sequences are background and not binding sites). Details: protein concentration: 200 nM; construct: GST-DNA-binding domain.
Summary of the method: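 Yeast transcription factors carrying a GST tag, as full-length proteins or DNA-binding domains, were produced by PURExpress in vitro transcription/translation. About 100-200 nM protein was applied to universal all-10-mer Agilent arrays, double-stranded by primer extension on fresh or once-stripped slides. Bound protein was detected with fluorescent anti-GST, and scans were normalised with masliner. The Universal PBM Analysis Suite gave each ungapped eight-base word, pooled with its reverse complement, an E-score, a modified Wilcoxon-Mann-Whitney statistic.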

In order of rising “PBM E-score” value:
1. AACCCTCT  -0.384
2. ACCGGTAG  -0.305
3. CCCAGGCC  -0.304
4. AGGACCCC  -0.298
5. CCGACTCA  -0.248
6. CCGGGTAC  -0.237
7. GGCCTGGA  -0.234
8. GCCTGTAA  -0.231
9. ACGGGGAC  -0.225
10. GCCCAGCA  -0.219
11. GACTATCC  -0.213
12. CTACACTC  -0.213
13. GACCTACC  -0.212
14. CAGAGACA  -0.19
15. CGGGCCCA  -0.189
16. GCCAGAAC  -0.187
17. ATTAGACC  -0.184
18. AGGAAGAA  -0.175
19. CACCAGCC  -0.172
20. CGATCGGA  -0.171
21. AGCCTAGC  -0.167
22. AAAGCGGG  -0.165
23. CGCCGGAC  -0.164
24. AGCTTTAC  -0.163
25. CGGGTAGC  -0.151
26. CTTGGCCA  -0.14
27. ATACCAGC  -0.138
28. TGCTACCA  -0.127
29. CGCGACTC  -0.121
30. GGGCCATA  -0.121
31. AGGTTGAT  -0.119
32. GGTACCTA  -0.118
33. AGATAACC  -0.11
34. CAACGACC  -0.109
35. ACCTCTTG  -0.109
36. ATTTGAAG  -0.107
37. CTCACCCA  -0.104
38. AGCTCGTC  -0.101
39. GATGGGTA  -0.101
40. AGTGTCCC  -0.101
41. CTCCCATC  -0.0972
42. CTTGGCAC  -0.0923
43. GCCACGGA  -0.087
44. ATCTTCCA  -0.0815
45. TAGCGAGA  -0.0782
46. ACCGCGGA  -0.0753
47. ACACCTCT  -0.0751
48. AGTGAGAG  -0.0695
49. CCGATGCC  -0.0671
50. CCGATTCA  -0.0604
51. CCGTCCCA  -0.0496
52. GTGGGAAA  -0.0404
53. CCATTTCA  -0.0394
54. ATCAGGTC  -0.0391
55. CACAAGTC  -0.0346
56. AGCAGATG  -0.0323
57. TATAGCGA  -0.0313
58. TAGCACGA  -0.0254
59. ATTTGCGG  -0.0222
60. CAGAGACG  -0.0161
61. AGCTCGAC  -0.0154
62. CGGCCTCA  -0.0129
63. ATGCTCGA  -0.00115
64. ACTACCAA  -0.00043
65. AAAGTGGC  0.00035
66. CTTCGCAA  0.00607
67. GAGACCAC  0.00825
68. AACCCGAA  0.0157
69. CGGTTGTC  0.0183
70. CAAGAGTA  0.0196
71. GCGACTAA  0.0201
72. GCAACGAC  0.0229
73. AGACCCGA  0.0255
74. CACTCCGG  0.0286
75. CCGCAAAA  0.0318
76. GCTCATAA  0.039
77. ATGGCTGA  0.0564
78. TATAGAGA  0.0625
79. AGTTTGTA  0.0653
80. ACACTTTG  0.066
81. GAAAGAAC  0.0777
82. ATATCTAC  0.0837
83. CGATTAGA  0.0971
84. ATTAGTAG  0.0988
85. AGTTATAG  0.104
86. GCTAACTA  0.106
87. CGTTGACA  0.111
88. CTTTGACA  0.113
89. ACGGATAC  0.115
90. TCTCTTAA  0.115
91. AACAACTT  0.122
92. ACAACTTC  0.131
93. CGTATTCA  0.134
94. ATATAGCC  0.143
95. AATCGAAA  0.159
96. AATCGAAG  0.161
97. CTCATGTA  0.162
98. CAATCCTG  0.165
99. GCTGCAAA  0.166
100. ATATCGAC  0.167
101. GAATTAGA  0.167
102. ATTACCTA  0.177
103. AATAATCG  0.179
104. CGTGACAC  0.188
105. AAACATGA  0.201
106. ACGTTTGA  0.243
107. TTATGAAA  0.259
108. ATGATAAT  0.279
109. CCGCGTCA  0.34
110. CGATTACG  0.349
